# Experimental data taken from the BET-seq Pho4 binding data (Le et al. 2018).
# The list shows a part of the results. These are noisy estimates, calculated here from bound and input reads.
# Biological target: T1, Pho4 (S. cerevisiae) (UniProt P07270)
# T1 sequence: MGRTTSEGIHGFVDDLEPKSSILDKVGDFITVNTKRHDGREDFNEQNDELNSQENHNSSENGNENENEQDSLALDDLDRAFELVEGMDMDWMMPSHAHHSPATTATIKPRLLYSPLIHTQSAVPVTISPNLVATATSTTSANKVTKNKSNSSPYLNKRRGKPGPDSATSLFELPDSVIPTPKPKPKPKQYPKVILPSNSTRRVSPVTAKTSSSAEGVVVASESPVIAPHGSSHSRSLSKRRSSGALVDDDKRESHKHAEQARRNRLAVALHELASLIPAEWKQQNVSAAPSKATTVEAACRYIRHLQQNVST
# Assay: relative binding free energy (BET-seq); higher = weaker binding
# Conditions: reference: library average
row,Sequence,relative binding free energy [kcal/mol]
1,GTTCACACGTGTAGGT,0.17
2,TAAGGCACGTGATATG,-0.01
3,AGAGTCACGTGTTGGA,0.04
4,AGCGGCACGTGAGCGG,-0.14
5,TGGGGCACGTGGGTTT,-0.19
6,GGTGGCACGTGTGGGG,0
7,GGGTTCACGTGCTCTT,0.29
8,GAAGGCACGTGTTGAG,0.03
9,AGAGGCACGTGTAGCG,-0.04
10,GAGGTCACGTGAGTTG,0.28
11,GCGTGCACGTGTGGTA,-0.01
12,TTTTTCACGTGAGATC,0.38
13,TAGCGCACGTGTCGGT,-0.04
14,GTTAGCACGTGATTTG,0.17
15,GTCCGCACGTGGGGCG,-0.21
16,GTCATCACGTGAGGGT,0.38
17,GTCTTCACGTGTGTTA,0.24
18,GGTAGCACGTGTATAT,0
19,AGTCACACGTGTGGAT,0.07
20,GTTGGCACGTGTTTGA,0
21,GGAAGCACGTGTTATG,-0.27
22,TGCAACACGTGTTTGT,-0.04
23,CGGATCACGTGAGGGA,0.26

row,Sequence,relative binding free energy [kcal/mol]
1,TTTCTCACGTGACGTG,0.33
2,CGAATCACGTGTGAGT,0.23
3,AGCGACACGTGGGCGG,-0.28
4,GGTTACACGTGGTAGG,0.16
5,GTGTCCACGTGTATTG,0.02
6,TGTGTCACGTGGAGTT,0.19
7,TTGACCACGTGGTAGT,-0.24
8,CAGGTCACGTGGGGAA,0.06
9,TGTATCACGTGGTTTA,0.05
10,AGGATCACGTGTATAT,0.18
11,TGTCGCACGTGGAATT,0.14
12,GCTGACACGTGCGGGG,-0.1
13,AGGGACACGTGTAGCT,0.07
14,TCGTACACGTGAATGG,0.19
15,GGTTTCACGTGGCGCA,0.18
16,TTGGTCACGTGGTTAT,0.13
17,TTGAACACGTGAAGTT,0.47
18,TGGTTCACGTGAAGCA,0.39
19,GTTGCCACGTGGTGAG,0.01
20,ATGGGCACGTGGAACG,-0.1
21,TGTTACACGTGGGACG,-0.04
22,GGTGACACGTGGGCAG,-0.13
23,GTTTCCACGTGGAGTG,0.14

row,Sequence,relative binding free energy [kcal/mol]
1,ATTGGCACGTGTGTGC,-0.17
2,GATCGCACGTGGGTTG,-0.12
3,GGAGGCACGTGTTGTG,-0.02
4,TTGAACACGTGTTGCA,-0.03
5,AGTAACACGTGAAGGT,0.1
6,GGTTTCACGTGGTTAG,0.28
7,TTAGGCACGTGTGCAT,-0.05
8,TTTGTCACGTGAGTTT,0.3
9,GTTTACACGTGTTAAA,0.22
10,TAAAGCACGTGGGGGG,-0.18
11,TTTCCCACGTGATGGT,0.28
12,TCGTTCACGTGCTAGT,0.27
13,TCGTACACGTGTTGGC,0.26
14,TATTACACGTGTGGAG,0.17
15,GGTTGCACGTGTCCGG,0.12
16,TATGCCACGTGTAGGT,-0.15
17,AAGAGCACGTGGCATG,-0.14
18,ATGTGCACGTGGCGGT,-0.12
19,GGGTCCACGTGATGGG,0.16
20,AGTGGCACGTGGTCGT,-0.12
21,GGTCACACGTGGTATG,-0.02
22,TTTAGCACGTGGTTAA,-0.18
23,GATTTCACGTGTAGCT,0.25

row,Sequence,relative binding free energy [kcal/mol]
1,TTTCGCACGTGTATAG,-0.16
2,GAGGGCACGTGTAATA,0.05
3,GGTGGCACGTGAGGGA,0.2
4,TGTGACACGTGCGTTG,-0.06
5,ATAGACACGTGATGTG,-0.02
6,AGGGGCACGTGACGCT,-0.01
7,TGTTCCACGTGAGTGT,0.23
8,AAGGCCACGTGGTAGG,-0.11
9,GGAGTCACGTGCGGGC,0.03
10,TTGTACACGTGTTGTG,0.04
11,GAGATCACGTGTGGTA,0.22
12,TAATTCACGTGGATAG,0.24
13,GGTTACACGTGAGGGG,0.41
14,GGAATCACGTGGAGGA,0.15
15,CGTTGCACGTGATGGC,0.03
16,GATGGCACGTGGTGCT,-0.09
17,GAATCCACGTGGTGTG,0
18,AGGGCCACGTGGGAGA,-0.14
19,GATGGCACGTGCGCGT,-0.23
20,TGCTTCACGTGATGTT,0.38
21,TGTCGCACGTGTGTCG,-0.09
22,GGGCGCACGTGGGTCG,-0.23
23,AATCGCACGTGGATGT,-0.05

row,Sequence,relative binding free energy [kcal/mol]
1,TAAGGCACGTGATTTA,-0.02
2,CGATGCACGTGGGATT,-0.1
3,ACTTACACGTGGTGTT,-0.01
4,TTAGACACGTGGGGTG,-0.15
5,TATGTCACGTGGAGGA,0.08
6,GTTTGCACGTGGGTCT,-0.04
7,TCCAGCACGTGTGGGG,0.03
8,TATGTCACGTGTATGC,0.13
9,GGAGCCACGTGTGTGC,0.17
10,TCGGTCACGTGGAATG,0.17
11,TGGGACACGTGCGGCG,-0.05
12,GTTCACACGTGTTGGT,0.35
13,AGCTTCACGTGTTGGT,0.23
14,GGCGCCACGTGGTAGT,-0.13
15,ACTGGCACGTGGGGTT,-0.24
16,GCTTGCACGTGATGTT,0.24
17,TAGTTCACGTGCGCTT,0.2
18,AGTTACACGTGGGTGG,-0.02
19,AATAACACGTGGGTGT,-0.22
20,TTAAACACGTGTAGGC,0.03
21,ATTGACACGTGGCGGG,-0.01
22,CGGGGCACGTGCCTGT,-0.23
23,GTCGTCACGTGTCTGG,0.1
